Assay results as given in PubChem BioAssay AID463173 (ICCB-Longwood Screening Facility, Harvard Medical School, 2010).
Out of some 52,000 compounds screened, about 4,300 (8.3%) were called active. No stated cut-off is given here; in the data, active means survival mostly below about 52% (no sharp cut-off); inactive means mostly above about 56%. Some of the results follow.

test system: DeltatarO mutant; experiment: S. aureus survival, RN4220 and DeltatarO strains – OD600, teichoic acid synthesis inhibitors, primary screen (AID 463173); conditions: S. aureus RN4220 wild type/DeltatarO growth, OD600, 18 h, active compounds read low, screened at 18.75 µg/mL (by protocol)

**Q.** With CC(C)(C)c1ccc(C(=O)N2CCN(Cc3cc(=O)n4nc(-c5ccccc5F)sc4n3)CC2)cc1 as the compound, how does the survival read?
**A.** inactive: 80%

**Q.** C=CCSc1nnc(Cn2cnc3ccccc32)n1C was tested. Which survival did it give?
**A.** inactive: 62%

**Q.** For COc1cc(OC)c(NC(=O)Cn2cnc3nc4c(cc3c2=O)CCCC4)cc1Cl, which survival is on record?
**A.** active: -5%

**Q.** With O=C(CSc1nc(-c2ccccc2)cc(C(F)(F)F)n1)NCCN1CCOCC1 as the compound, how does the survival read?
**A.** inactive: 78%

**Q.** How did the survival turn out when Cc1cc(=O)oc2cc(OCC(=O)Nc3c(C(C)C)cccc3C(C)C)ccc12 was run?
**A.** inactive: 66%

**Q.** Clc1ccc(-c2nnn3c2nc(NCc2ccc4c(c2)OCO4)c2ccccc23)cc1 was tested. Which survival did it give?
**A.** inactive: 59%

**Q.** How did the survival turn out when CCN(C(=O)CSc1nc2ccccc2n1CC(=O)N1CCCC(C)C1)c1ccccc1 (centres undefined) was run?
**A.** inactive: 109%

**Q.** With CCOc1ccc(CCNC(=O)C2CCN(Cc3nc(-c4ccccc4C)oc3C)CC2)cc1OCC as the compound, how does the survival read?
**A.** inactive: 86%

**Q.** Which survival does the source give for CCOC(=O)c1cc2sccc2n1CC(=O)NC1CCC(C)CC1 (centres undefined) here?
**A.** inactive: 95%

**Q.** How did the survival turn out when O=C(CC(NCc1cccnc1)C(=O)O)Nc1ccc(O)cc1 (centres undefined) was run?
**A.** inactive: 72%

**Q.** With Cn1c(=O)c(=O)n(C)c2cc(S(=O)(=O)Nc3ccc(Cl)c(C(F)(F)F)c3)ccc21 as the compound, how does the survival read?
**A.** inactive: 74%

**Q.** Which survival does the source give for Cc1ccc(C2c3[nH]c4ccccc4c3CCN2C(=O)CCc2ccccc2)cc1 (centres undefined) here?
**A.** inactive: 73%

**Q.** How did the survival turn out when N#C/C(=C/C=C/c1ccco1)c1nc2ccccc2[nH]1 was run?
**A.** inactive: 76%

**Q.** How did the survival turn out when COc1ccccc1-c1nc(SCC(=O)Nc2ccc(C)c(C)c2)n[nH]1 was run?
**A.** active: 43%

**Q.** For CCN(CC)C(=O)COc1ccc(-c2nnc(Nc3ccc(OC)c(C(=O)NC)c3)c3ccccc23)cc1, which survival is on record?
**A.** inactive: 49%

**Q.** With Cc1sc2ncn(CC(=O)N(C)c3cccc(C(F)(F)F)c3)c(=O)c2c1S(=O)(=O)N1CCN(c2ncccn2)CC1 as the compound, how does the survival read?
**A.** inactive: 130%

**Q.** Fc1ccc(-n2ncc3c(N4CCN(c5ccccc5F)CC4)ncnc32)cc1 was tested. Which survival did it give?
**A.** inactive: 86%

**Q.** How did the survival turn out when COc1ccc(CCn2c(=O)c3cccnc3n(CC(=O)Nc3c(C)cc(C)cc3C)c2=O)cc1OC was run?
**A.** inactive: 90%

**Q.** Which survival does the source give for CCCc1cc(N2CCN(c3ccc(OC)cc3)CC2)n2cnnc2n1 here?
**A.** inactive: 71%

**Q.** For COc1cc(NC(=O)CCNC(=O)Cn2cnc3ccccc3c2=O)cc(OC)c1OC, which survival is on record?
**A.** inactive: 82%

**Q.** Cc1ccc2nc3sc(C#N)c(N)c3cc2c1 was tested. Which survival did it give?
**A.** inactive: 91%

**Q.** How did the survival turn out when O=C(CCCCCn1c(=O)[nH]c2ccccc2c1=O)NCc1ccc(Cl)cc1 was run?
**A.** inactive: 95%

**Q.** How did the survival turn out when CCC(=O)N1CCc2cc(Br)cc(S(=O)(=O)NCc3ccccc3)c21 was run?
**A.** inactive: 66%

**Q.** With CCC1CCCCN1C(=O)Cn1c(=O)n(CCCCCC(=O)NCc2ccccc2Cl)c(=O)c2sccc21 (centres undefined) as the compound, how does the survival read?
**A.** inactive: 73%
